# Test results reported in the RNAGym collection of RNA variant scans (doi:10.1093/nar/gkz1192).
# The source gives no read counts; variants with many changes may rest on few reads.
# B1: CPEB3 Ribozyme (parent)
# chain: UAACAGGGGGCCACAGCAGAAGCGUUCACGUCGCAGCCCCUGUCAGAUUCUGGUGAAUCUGCGAAUUCUGCUGUAUAUCUC
# Variants of: B1
# Test: self-cleavage, relative activity (ratio to wild type); higher = more cleavage; in vitro, sequencing
# How it was run: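 Barcoded CPEB3 ribozyme mutants, produced by rounds of error-prone PCR, self-cleaved while being transcribed with T7 RNA polymerase for 5 hours at 37°C and during a subsequent 15 min DNase I step before EDTA was added. Sequencing of template-switched cDNA on Illumina gave cleaved and total reads, and DNA sequencing assigned barcodes to variants. Each variant's relative activity is its cleaved/total read fraction divided by the unmutated ribozyme's fraction, averaged across three batches. A variant needed a minimum of 5 reads.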
row,Variant,self-cleavage
1,UAACAGGGGGCCACAGCAGAAGCGUUCACGUCGCAGCCCCUGUCAGAUCCUGGUGAAUCUGCGAGUACUGCUGUAUAUCUC [U49C A65G U67A],0.17
2,UAACAGGGGGCCACAGCAGAAGCGUUCACGUCGCAGCCCCUGUCAGAUCCUGGUGAAUCUGCGAGUUCUGCUGUAUGUCUC [U49C A65G A77G],0.45
3,UAACAGGGGGCCACAGCAGAAGCGUUCACGUCGCAGCCCCUGUCAGAUACUGGUGAGUCUGCGAAUUCUGCUGUAUAUCCC [U49A A57G U80C],0.33
4,UAACAGGGGGCCACAGCAGAAGCGUUCACGUCGCAGCCCCUGUCAGAUCCUGGUGAAUCUCCGAGUCCUGCUGUAUACCUC [U49C G61C A65G U67C U78C],0.04
5,UAACAGGGGGCCACAGCAGAAGCGUUCACGUCGCAGCCCCUGUCAGAUCCUGGUGAGGCUGCGAUUUCUGGUGUAUAUCUC [U49C A57G U58G A65U C71G],0.05
6,UAACAGGGGGCCACAGCAGAAGCGUUCACGUCGCAGCCCCUGUCAGAUCCCGGUGAAUAUGCGAAUUCUGCUGUAUAUCUC [U49C U51C C59A],0.08
7,UAACAGGGGGCCACAGCAGAAGCGUUCACGUCGCAGCCCCUGUCAGAUACUGGUGAGUCAGCUAAUUCUGCUGUGUAUCUC [U49A A57G U60A G63U A75G],0.18
8,UAACAGGGGGCCACAGCAGAAGCGUUCACGUCGCAGCCCCUGUCAGAUACAGGUGAAUCCGCGAAAUCUGCUGUGUAUCCC [U49A U51A U60C U66A A75G U80C],0.09
9,UAACAGGGGGCCACAGCAGAAGCGUUCACGUCGCAGCCCCUGUCAGAGUCUGGCGGACCUGCGAAUUCUGCUGUAUAUCUC [U48G U54C A56G U58C],0.35
10,UAACAGGGGGCCACAGCAGAAGCGUUCACGUCGCAGCCCCUGUCAGAUCCCGGUGAAUCCGCGAAUUCUGCUGUAUAUCUC [U49C U51C U60C],0.17
11,UAACAGGGGGCCACAGCAGAAGCGUUCACGUCGCAGCCCCUGUCAGAUCCUGGUGGAUCUGCGUAUUCUGCUGUAUAUCCC [U49C A56G A64U U80C],0.48
12,UAACAGGGGGCCACAGCAGAAGCGUUCACGUCGCAGCCCCUGUCAGAUACUGGUUAAUCUGCGAAUUCUGCCGUAUAUCUC [U49A G55U U72C],1.08
13,UAACAGGGGGCCACAGCAGAAGCGUUCACGUCGCAGCCCCUGUCAGAUACUGGUGUAUCUGCGAAUUCUGCUGUUUAUCUC [U49A A56U A75U],1.14
14,UAACAGGGGGCCACAGCAGAAGCGUUCACGUCGCAGCCCCUGUCAGAUACUGGUGAAUCUGCGAAUACUGCUGUAUACCAC [U49A U67A U78C U80A],0.23
15,UAACAGGGGGCCACAGCAGAAGCGUUCACGUCGCAGCCCCUGUCAGAUCCUGGAGAGUCUGCGAAUUCUGCUGUAUAUCUC [U49C U54A A57G],0.21
16,UAACAGGGGGCCACAGCAGAAGCGUUCACGUCGCAGCCCCUGUCAGAUCCUGGUGAUUCUGCGAAUUCUGCCGUAUAUCUC [U49C A57U U72C],0.34
17,UAACAGGGGGCCACAGCAGAAGCGUUCACGUCGCAGCCCCUGUCAGAUCCUGGUGUAUCUGCGAAUUCUGCCGUAUAUCUC [U49C A56U U72C],0.48

row,Variant,self-cleavage
1,UAACAGGGGGCCACAGCAGAAGCGUUCACGUCGCAGCCCCUGUCAGAUCCUGGUGAACCUGCGAAUUCUGCUGUGUAUCUC [U49C U58C A75G],0.11
2,UAACAGGGGGCCACAGCAGAAGCGUUCACGUCGCAGCCCCUGUCAGAUACUGGUGAACCUGCGAAAUCUGCUGUAUAUCUC [U49A U58C U66A],0.08
3,UAACAGGGGGCCACAGCAGAAGCGUUCACGUCGCAGCCCCUGUCAGAUCCUGGUGAAACUGCGUAUUCUGCUGUAUAUCUC [U49C U58A A64U],0.1
4,UAACAGGGGGCCACAGCAGAAGCGUUCACGUCGCAGCCCCUGUCAGAUCCUGGUGAGUCUGCGAAUUCUGCUGAAUAUCUC [U49C A57G U74A],0.64
5,UAACAGGGGGCCACAGCAGAAGCGUUCACGUCGCAGCCCCUGUCAGAUCCUGGGGAAUCUGCGGAUUCUGCUGUAUAUCUC [U49C U54G A64G],0.43
6,UAACAGGGGGCCACAGCAGAAGCGUUCACGUCGCAGCCCCUGUCAGAUCCUGGUGAGUCUGCGGAUUCUGCUGUAUAUCUC [U49C A57G A64G],0.14
7,UAACAGGGGGCCACAGCAGAAGCGUUCACGUCGCAGCCCCUGUCAGAUCCAGGUGAAUCUGCGAAACCCGCUGUAUAUCUC [U49C U51A U66A U67C U69C],0.37
8,UAACAGGGGGCCACAGCAGAAGCGUUCACGUCGCAGCCCCUGUCAGAUCCUGGUGAUUCCGCGAACUCUGCAGUAUAUCUC [U49C A57U U60C U66C U72A],0.04
9,UAACAGGGGGCCACAGCAGAAGCGUUCACGUCGCAGCCCCUGUCAGAUCCUGGUGAAUCUGCGAGUUCUGCUGUAUAUCCC [U49C A65G U80C],0.19
10,UAACAGGGGGCCACAGCAGAAGCGUUCACGUCGCAGCCCCUGUCAGAUACUGGUGAAUCUGCGAUUUCUGCUGCAUAUCUC [U49A A65U U74C],0.21
11,UAACAGGGGGCCACAGCAGAAGCGUUCACGUCGCAGCCCCUGUCAGAUACUGGUGAAUCUGCGAAAUCUGCUGCAUAUCUC [U49A U66A U74C],0.21
12,UAACAGGGGGCCACAGCAGAAGCGUUCACGUCGCAGCCCCUGUCAGAUACUGGUGAUUCUGCGAAUCCUGCUGUAUAUCUC [U49A A57U U67C],0.15
13,UAACAGGGGGCCACAGCAGAAGCGUUCACGUCGCAGCCCCUGUCAGAUACUGGUGAAUCUGCGAGUUCUGCUGCAUAUCUC [U49A A65G U74C],0.48
14,UAACAGGGGGCCACAGCAGAAGCGUUCACGUCGCAGCCCCUGUCAGAUCCUGGUGAAUAUGCAAAUUCUGCUGUAUAUCUC [U49C C59A G63A],0.13
15,UAACAGGGGGCCACAGCAGAAGCGUUCACGUCGCAGCCCCUGUCAGAUACUGGUGAAUCCGCGAAUUCUGCUGAGUAUCUC [U49A U60C U74A A75G],0.23
16,UAACAGGGGGCCACAGCAGAAGCGUUCACGUCGCAGCCCCUGUCAGAUACUGGUGAGUCUGCGAAUUCUGCAGUAUAUCUC [U49A A57G U72A],0.4
17,UAACAGGGGGCCACAGCAGAAGCGUUCACGUCGCAGCCCCUGUCAGAUCCUGAUGAAUCUGCGAAUUCUGCAGUAUAUCUC [U49C G53A U72A],0.22
